From paper PMC4336329 (PLoS ONE, 2015)
About 14,000 (4.5%) of roughly 310,000 compounds showed an effect of 50% or more. Effects have a minus sign here. This is one part of the list.

biological target: human ether-à-go-go-related gene (hERG) potassium channel (human, UniProt Q12809); test: primary screen, population patch clamp on CHO cells stably expressing hERG
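Further: peak tail current of the secondary pulse compared with the same well before compound.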

Sequence of human ether-à-go-go-related gene (hERG) potassium channel (Q12809 whole entry, looked up): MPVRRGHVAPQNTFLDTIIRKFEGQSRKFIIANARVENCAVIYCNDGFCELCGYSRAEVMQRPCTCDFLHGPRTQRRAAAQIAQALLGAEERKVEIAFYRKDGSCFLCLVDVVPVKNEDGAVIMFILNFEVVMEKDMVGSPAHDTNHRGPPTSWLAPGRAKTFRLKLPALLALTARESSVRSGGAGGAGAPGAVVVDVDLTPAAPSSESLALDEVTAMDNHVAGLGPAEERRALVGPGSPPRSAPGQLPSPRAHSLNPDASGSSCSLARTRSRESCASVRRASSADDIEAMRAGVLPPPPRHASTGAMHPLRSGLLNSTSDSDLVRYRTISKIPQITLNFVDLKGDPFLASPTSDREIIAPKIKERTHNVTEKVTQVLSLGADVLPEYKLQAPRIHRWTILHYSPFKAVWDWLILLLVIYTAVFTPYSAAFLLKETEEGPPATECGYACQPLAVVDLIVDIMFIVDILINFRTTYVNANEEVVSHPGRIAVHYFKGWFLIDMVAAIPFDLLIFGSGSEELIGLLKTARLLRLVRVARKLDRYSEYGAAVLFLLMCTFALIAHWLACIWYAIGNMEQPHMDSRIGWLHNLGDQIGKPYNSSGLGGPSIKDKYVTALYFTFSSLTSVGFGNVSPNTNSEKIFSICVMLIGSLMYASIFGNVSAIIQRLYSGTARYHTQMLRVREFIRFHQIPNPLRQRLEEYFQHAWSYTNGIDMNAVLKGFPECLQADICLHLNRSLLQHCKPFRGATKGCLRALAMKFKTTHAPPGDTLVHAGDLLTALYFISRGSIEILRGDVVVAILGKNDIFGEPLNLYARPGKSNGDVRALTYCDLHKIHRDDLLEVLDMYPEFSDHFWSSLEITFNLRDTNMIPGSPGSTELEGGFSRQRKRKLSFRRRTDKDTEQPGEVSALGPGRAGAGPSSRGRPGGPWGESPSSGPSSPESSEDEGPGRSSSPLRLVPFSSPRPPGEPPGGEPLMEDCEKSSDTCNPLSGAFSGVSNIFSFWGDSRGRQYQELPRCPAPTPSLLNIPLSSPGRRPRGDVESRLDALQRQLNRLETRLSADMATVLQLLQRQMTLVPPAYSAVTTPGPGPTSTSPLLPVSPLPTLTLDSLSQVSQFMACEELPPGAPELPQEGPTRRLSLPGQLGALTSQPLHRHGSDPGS

Row | SMILES | hERG current change (%, negative = inhibition) at 10uM [%]
1 | CN1CCN(NS(=O)(=O)c2ccc(Cl)cc2)CC1 | 19.4
2 | CCOC(=O)/C(=N/Nc1ccc(Cl)cc1)S(=O)(=O)c1ccccc1 | -9.5
3 | Cc1cc(C)n(Cc2ccc(NC(=O)c3ccc(COc4ccccc4Br)cc3)cc2)n1 | -11.2
4 | O=C(C1CCCN(S(=O)(=O)c2ccccc2)C1)N1CCN(c2ncccn2)CC1 (stereo not drawn) | -32.6
5 | O=c1[nH]ncc(NCCc2ccccc2)c1Cl | 17.5
6 | CC(NC(=O)Cn1ncc(Cl)c(Cl)c1=O)C12CC3CC(CC(C3)C1)C2 (stereo not drawn) | 15.5
7 | COC(=O)c1cc(C)nc(Sc2ccccc2NC(C)=O)n1 | 8.41
8 | CCOC(=O)C1(C)NC(c2ccc(OC)c(OC)c2)C2C(=O)N(CC)C(=O)C21 (stereo not drawn) | -13.9
9 | CCCn1cc(S(=O)(=O)c2ccc(C)cc2)c(=O)c2cc(OC)c(OC)cc21 | -0.0977
10 | O=C(COc1ccc(Cl)cc1)Nc1ccc2c(c1)C(=O)NC2=O | 15.6
11 | CCCc1c(C)c2cc(C)ccc2[nH]c1=O | -25.3
12 | CC(=O)Nc1nnc(SCc2cccc(F)c2)s1 | 2.05
13 | CC1CCC2(CC1)Nc1ccccc1C(=O)N2c1ccccc1 (stereo not drawn) | 5.23
14 | CCOc1nc2ccccc2nc1C | 14.9
15 | COC(=O)c1sccc1NC(=S)N1CCN(C)CC1 | 0.218
16 | O=C(O)C(=O)O.c1ccc(CN2CCN(C(c3ccccc3)c3ccccc3)CC2)cc1 | 2.22
17 | O=C1NN=C(c2ccc(Cl)cc2)CC1c1cccc(Cl)c1 (stereo not drawn) | -4.64
18 | O=S(=O)(c1ccc(NC(=S)Nc2ccc3c(c2)OCO3)cc1)N1CCOCC1 | 13.1
19 | COc1ccccc1C(=O)NCCC(=O)NCc1ccncc1 | -4.37
20 | CCOC(=O)c1ccc(NS(=O)(=O)c2c(C)nc3sccn3c2=O)cc1 | 1.63
21 | COc1ccc(-n2c(CN3CCC(C(N)=O)CC3)nc3ccc([N+](=O)[O-])cc3c2=O)c(OC)c1 | -3.9
22 | O=C1CCC(C(=O)NCc2ccccc2)N1 (stereo not drawn) | 19.1

Row | SMILES | hERG current change (%, negative = inhibition) at 10uM [%]
23 | NS(=O)(=O)c1ccc(NS(=O)(=O)/C=C/c2ccccc2)cc1 | 6.55
24 | Cc1c(NC(=O)Nc2c(Cl)cccc2Cl)c(=O)n(-c2ccccc2)n1C | -6.03
25 | O=C(COC(=O)Cc1n[nH]c(=O)c2ccccc12)Nc1ncc(Cl)cc1Cl | -20.6
26 | Clc1ccc2c(c1)CNc1c(ncnc1N1CCOCC1)O2 | -10.1
27 | CCc1sc(NC(=O)CN2CCC(C(N)=O)CC2)nc1-c1ccccc1 | -33.6
28 | CC(=O)N(CCCN(C)C)Cc1ccccn1 | 15.9
29 | CCN(CC)CCn1nc2c3c(cccc3c1=O)-c1ccccc1-2 | -70.2
30 | CC(=O)Nc1ccc(S(=O)(=O)N2CCN(CC3CC4C=CC3C4)CC2)cc1.O=C(O)C(=O)O (stereo not drawn) | 1.05
31 | CCOC(=O)c1c(NC(=O)c2ccc(C)cc2)sc2c1CC(C)(C)NC2(C)C | -10.6
32 | COc1ccccc1NC(=O)c1c(Nc2ccccc2C)sc(C(=O)Nc2cccc(Cl)c2)c1N | 6.04
33 | CCOC(=O)C1CCN(S(=O)(=O)CCNC(=O)c2ccccc2)CC1 | -2.78
34 | CC1CCC(C(C)C)C(OC(=O)COC(=O)c2ccccc2N)C1 (stereo not drawn) | 9.64
35 | Cc1ccc(-n2nnnc2Sc2ccc(S(=O)(=O)NCCN(C)C)cc2[N+](=O)[O-])cc1 | -8.17
36 | N#Cc1cnc2cc(-c3ccccc3)nn2c1N | 7.28
37 | O=C(CC1COc2ccccc2O1)Nc1ccccn1 (stereo not drawn) | 9.43
38 | Cc1cc(NC(=O)c2cn(C3CCCCC3)c(=O)c3c2c2ccccc2n3C)no1 | 12.9
39 | O=C(CSc1nc(-c2ccccc2)nn1C(=O)c1ccccc1)Nc1cccc([N+](=O)[O-])c1 | 2.83
40 | COCc1nnc(NC(=O)CCCCCN2C(=O)c3ccccc3C2=O)s1 | 0.949
41 | CCCN(C(=O)CCl)C1=CCCCC1 | 32.5
42 | O=C(c1ccccc1)c1cn(CC(=O)N2CCCC2)c2ccccc12 | -8.1
43 | CC(C(=O)N=c1sc2ccccc2n1C)N1C(=O)C2CC=CCC2C1=O (stereo not drawn) | -40.2
44 | Cc1cc(C(=O)N/N=C/c2ccc3ccccc3c2)n[nH]1 | 20.8

Row | SMILES | hERG current change (%, negative = inhibition) at 10uM [%]
45 | O=[N+]([O-])c1ccc(Cl)c(/C=N/n2c(-c3ccncc3)n[nH]c2=S)c1 | 18.3
46 | Cc1ccc2c(c1)-c1c(ssc1=S)C(C)(C)N2C(=O)CSc1nncn1C | -19.6
47 | O=C1C(Cc2cnc[nH]2)NC(=S)N1c1ccccc1 (stereo not drawn) | 15.7
48 | COc1ccc(NC2CCCN(C(=O)COc3ccc(C)cc3)C2)cc1 (stereo not drawn) | -22.5
49 | COc1ccc(NC(=O)CSc2nnc3ccc(-c4ccccn4)nn23)cc1OC | -3.98
50 | COc1ccc(CN2[C@@H](CC(=O)O)c3ccccc3S2(=O)=O)cc1 | 19.7
51 | CCN(CC)c1ccc(/C=N/NS(=O)(=O)c2cccc([N+](=O)[O-])c2)cc1 | 1.05
52 | C/C(=N\N1CCN(c2ccccc2)CC1)c1ccco1 | 12
53 | COC(=O)c1ccc(C(=O)Nc2nnc(-c3cccnc3)o2)cc1 | 23.4
54 | COc1ccc(C2C(C#N)=C(N)N(N(C)C)C3=C2C(=O)CC(C)(C)C3)cc1 (stereo not drawn) | 3.38
55 | CC1CN(S(=O)(=O)c2ccc(F)cc2)CN1C(=O)N1CCOCC1 (stereo not drawn) | 17.6
56 | COCCNC(=S)N/N=C/c1ccc(OCc2ccc(C(=O)OC)cc2)cc1 | 0.356
57 | COc1ccc(CC(=O)NC2CC(C)(C)NC(C)(C)C2)cc1OC.Cl | 16.9
58 | O=C1NC(c2cccc(Br)c2)=N/C1=C\c1ccco1 | -16.3
59 | Cc1cc(C)cc(NC(=O)C2C3C=CC4(O3)C2C(=O)N(CCCN2CCCC2)C4C(=O)NC2CCCC(C)C2C)c1 (stereo not drawn) | 25.3
60 | CCC(CC)NC(=O)c1cc(S(=O)(=O)N2CCCCC2)ccc1N1CCOCC1 | -20.3
61 | CCc1nc(N2CCCCC2C)c2oc3ccccc3c2n1.Cl (stereo not drawn) | 6.37
62 | CC(C(=O)O)c1ccc(C(=O)c2cccs2)cc1 (stereo not drawn) | -5.25
63 | COc1cccc(C(=O)NC(=S)Nc2ccc3[nH]c(=O)[nH]c3c2)c1 | -70.3
64 | CCOc1ccc(N2C(=O)/C(=C\c3cccs3)C(=O)NC2=S)cc1 | 17.7
65 | CC1=CC(C)(C)N2C(=O)C3(C(C#N)=C(N)OC4=C3C(=O)CCC4)c3c(C)c(C)cc1c32 (stereo not drawn) | 8.02
66 | Clc1ccc(-c2c[n+]3c(n2-c2ccccc2)SCC3)cc1.[Cl-] | -62.7

Row | SMILES | hERG current change (%, negative = inhibition) at 10uM [%]
67 | CC(O)[C@H]1CNC(=O)C(=O)N1CC1(c2ccccc2)CC1 (stereo partly drawn) | 27.2
68 | Cc1c(NS(=O)(=O)c2ccc3nc(COc4ccccc4Cl)[nH]c3c2)c(=O)n(-c2ccccc2)n1C | -17.5
69 | Cc1ccc(C(C(=O)NC2CCCC2)N(Cc2ccc(F)cc2)C(=O)c2snc(C(N)=O)c2N)o1 (stereo not drawn) | -24.2
70 | O=C(COC(=O)c1ccc(Br)o1)NC1CCCCC1 | 19.3
71 | COc1ccc(/C(C)=N/NC(=O)C2CC2)cc1 | -7.63
72 | COC(=O)c1ccccc1NC(=O)CSc1nc(C)cc(C)n1 | 10.5
73 | COc1cc2c(cc1NC(=S)NC(=O)/C=C/c1ccco1)oc1ccccc12 | 22.2
74 | O=C(NCC(c1ccco1)N1CCc2ccccc21)C(=O)Nc1ccccc1 (stereo not drawn) | -1.69
75 | O=C(CSc1nc(-c2ccccc2)c(-c2ccccc2)[nH]1)Nc1ccc2c(c1)OCO2 | -8.24
76 | CCOc1ccc(NC(=O)Cn2nnc(-c3ccccc3F)n2)cc1 | -13.1
77 | CC(=O)c1c(C)[nH]c(C(=O)OC(C)C(=O)Nc2ccc(C)c(S(=O)(=O)N3CCOCC3)c2)c1C (stereo not drawn) | -12.5
78 | CCN1C(=O)[C@H]2[C@@H](c3ccc(-c4ccc(Cl)c(Cl)c4)cc3)N[C@@](Cc3ccccc3)(C(=O)OC)[C@H]2C1=O.O=C(O)C(F)(F)F | 1.81
79 | COc1ccc(Br)c(C(=O)Nc2cccc(Cl)c2Cl)c1 | -0.634
80 | O=C(c1cccs1)c1cn(Cc2ccccc2Cl)c2ccccc12 | 14.5
81 | CC(O)Cn1c(N2CCCC2)nc2c1c(=O)n(C)c(=O)n2C (stereo not drawn) | 14.1
82 | COc1cc2c(cc1OC)C(c1ccc([N+](=O)[O-])cc1)NCC2 (stereo not drawn) | -20.3
83 | CC(NC(=S)Nc1ccc(Cl)cc1Cl)C(c1cccs1)N1CCCC1 (stereo not drawn) | -17.9
84 | CS(=O)(=O)Nc1ccc(C(=O)Nc2ccccc2Sc2ccccc2)cc1 | -27.3
85 | CCC(Sc1nc2ccccc2s1)C(=O)Nc1nnc(C)s1 (stereo not drawn) | -8.55
86 | COc1ccccc1/C=C/C=N/NC(=O)c1ccncc1 | 6.22
87 | CCN(CC(=O)NCc1cccs1)C(=O)/C=C/c1ccc(C)cc1 | -29.4
